Laboratory results: the supplement of paper PMC3724861
Some of the results follow.

system: T1, Caupolican (Caup) homeodomain DNA-binding domain; assay: PBM E-score (8-mer, recovered from the published 9-mer minima) (E-score (dimensionless, -0.5 to 0.5)); Drosophila protein; higher = stronger relative binding preference, active = 0.31 or more
T1 sequence: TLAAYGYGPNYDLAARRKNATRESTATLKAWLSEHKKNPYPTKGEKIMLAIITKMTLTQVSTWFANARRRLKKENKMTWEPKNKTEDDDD
In short: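 Caup's homeodomain DNA-binding domain (residues 214-303) was made by in vitro transcription and translation and applied at 100 nM to custom-designed protein binding microarrays. Each value is an enrichment score that gives relative binding preference for a short DNA word, with higher meaning stronger. The 8-mer values were recovered from published 9-mer scores, each of which was the minimum of its two constituent 8-mer scores. A cutoff of 0.31 marks candidate sites.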

Sequence	PBM E-score
CTAGAATC	inactive: 0.0169
GCTTGGCC	inactive: -0.225
AGCGTTTA	inactive: 0.00077
CAACGCTG	inactive: -0.0959
TGCCTAAA	inactive: -0.0355
CCGCGGCC	inactive: -0.298
GACGGGCC	inactive: -0.291
TAACTAAA	inactive: 0.109
CGCTGCCG	inactive: -0.185
CAGAGTAC	inactive: 0.0122
ACGTCTTA	inactive: 0.0891
CACGCATA	inactive: 0.124
GCTAAAAA	inactive: 0.0111
AGAATCTG	inactive: 0.00045
GCATAGGA	inactive: 0.0385
ATCTTACC	inactive: -0.0254
ATCTCCCA	inactive: -0.0733
GCGCATAA	inactive: -0.0295
GCGCCGCA	inactive: -0.0847
ATTAGGTA	inactive: 0.125
AGCGCCCA	inactive: -0.309
GAAGTGAA	inactive: 0.0123
GTCCGCTA	inactive: -0.0553
ACTAGGTG	inactive: 0.0247
GTCCATAA	inactive: 0.0455

Sequence	PBM E-score
ATCCGGTC	inactive: -0.0543
CCGGTCAG	inactive: -0.142
AATATCCT	inactive: 0.0639
GACATGTA	active: 0.477
AAATGCCT	≥ -0.019
CATCTAAA	inactive: 0.0293
GCCTAGCA	inactive: -0.183
ACTGCAAC	inactive: 0.0517
GCCGAAGA	inactive: -0.122
GGGGCAAA	inactive: -0.144
GACTGCTA	inactive: -0.036
CCGCCCAG	inactive: -0.252
ATTTAGCG	inactive: -0.00146
ACCACAAC	inactive: 0.175
GAGCGAAA	inactive: 0.00372
CGAGTCCA	inactive: -0.118
CCCAGACC	inactive: -0.195
CTCGGGCC	inactive: -0.183
CAATGGAC	inactive: 0.0656
ACTTAACT	inactive: 0.0819
CTGGGCTC	inactive: -0.186
ACTCGTAT	inactive: 0.175
AGAGACCC	inactive: -0.103
AGGCTGAA	inactive: -0.0844
GTGAGCGA	inactive: -0.119

Sequence	PBM E-score
AAGGGTGA	inactive: -0.11
CAGGAGCG	inactive: -0.152
CCGTCTCC	inactive: -0.216
GACCGTGC	inactive: -0.117
CACACTAA	inactive: 0.106
GGGACGGA	inactive: -0.244
AAGTACGA	inactive: 0.113
GACTGCTC	inactive: -0.135
GAAGCCGC	inactive: -0.212
CGGAACAG	inactive: 0.0672
TCCCACCA	≥ -0.0958
GATAGCAC	inactive: -0.0686
CAGGCATA	inactive: 0.0146
AGAATCAG	inactive: 0.0451
GAGTAATC	inactive: 0.0247
GCTGGACC	inactive: -0.19
GTAAATCA	inactive: 0.22
AAAATGTT	inactive: 0.249
ATGTATCA	active: 0.321
AACCGATT	inactive: 0.014
CGAACCAC	inactive: -0.0921
AGTGCTCC	inactive: -0.279
GCATACAC	inactive: 0.208
AAATATAG	inactive: 0.125
GAGGCTCA	inactive: -0.247

Sequence	PBM E-score
AGACTACG	inactive: -0.0946
CGCTTAAA	inactive: -0.0559
CGACCCCG	inactive: -0.263
CATTTTGA	inactive: 0.0478
ATTATTCA	≥ 0.173
TAAGGATA	inactive: 0.117
CCTTTATC	inactive: -0.0774
CTCCCAGC	inactive: -0.155
TAAGTGTA	inactive: 0.241
ATCTCTCA	inactive: -0.00117
GCTGGGAA	inactive: -0.146
ACTGCGGC	inactive: -0.171
CCGGGTAG	inactive: -0.086
CGTTCGCA	inactive: -0.00371
CGTAACGA	inactive: 0.00912
CGCACCCC	inactive: -0.157
TAACAGAA	inactive: 0.203
TTAGCCAA	inactive: -0.018
CGGAATAG	inactive: -0.0185
TATCTTCA	inactive: 0.0318
CGGTTGCC	inactive: -0.146
ACTGGAAT	≥ 0.0439
CGCAGGGC	inactive: -0.236
GAGAGAAC	inactive: 0.0231
CACAAGCG	inactive: 0.0433

Sequence	PBM E-score
GCTCCTGA	inactive: -0.231
AATGTTAG	inactive: 0.253
AATCTACG	inactive: -0.022
GTGTGAGA	inactive: 0.00371
GGTGCTAA	inactive: -0.0585
AATCAATG	inactive: 0.155
CTCACAAA	inactive: 0.00316
CGCGTGGC	inactive: -0.286
AATTCAGG	inactive: 0.0422
ACGGCCAC	inactive: -0.212
ATGGTTGA	inactive: 0.0905
CACAACTA	inactive: 0.164
TAACAATA	inactive: 0.268
CAGTGTAC	inactive: 0.207
ATGTTTGG	inactive: 0.229
AAAGTTGA	inactive: 0.0111
CCTCTACA	inactive: 0.0804
GGACGAAA	inactive: -0.0239
GATCTTGA	inactive: 0.101
AAGCGCCG	inactive: -0.202
CCAACAAC	inactive: 0.178
AGGCCACC	inactive: -0.222
TCTTGGAA	≥ 0.0432
AGAATAAT	inactive: 0.101
TAAAAGCA	inactive: -0.0301

Sequence	PBM E-score
AGCATTTC	inactive: 0.0508
CACTTAAA	inactive: 0.0401
CTTCGGAA	inactive: -0.0828
ATACTTCG	≥ 0.111
GACCCCCC	inactive: -0.352
AGGCTCAC	inactive: -0.163
GTGGGTTA	inactive: -0.0809
ATTCTAGC	inactive: 0.0256
CAGATATG	inactive: 0.0947
TCAAAGAA	inactive: 0.0668
CATAATAC	inactive: 0.236
ATACTAAT	inactive: 0.163
GCATTGGA	inactive: -0.0288
GCCATGCC	inactive: -0.149
GAAGGGTA	inactive: 0.0181
CGTCGCCC	inactive: -0.171
CCCCAGCC	inactive: -0.285
GCTCCAGA	inactive: -0.128
AATCCCAC	inactive: -0.0145
CACAGCTA	inactive: 0.0403
CGATAGGA	inactive: 0.00723
ACGGACGG	inactive: -0.115
CATTACGC	inactive: -0.011
ATGTGGGC	inactive: -0.027
GGAGATTA	inactive: 0.0459

Sequence	PBM E-score
TGGGCCAA	inactive: -0.11
GAAAACAA	inactive: 0.215
AAGCGATG	inactive: -0.067
ATGGAAGA	inactive: -0.0169
ATGTATAA	active: 0.344
ATAAGCAT	inactive: 0.0746
CAGGTGGG	inactive: -0.134
CAAGATAC	inactive: 0.216
AATCTTCG	≥ 0.0403
CGGTGATC	inactive: -0.0689
TGAACGCA	≥ 0.0319
AGCCGACA	inactive: 0.0713
CTATCTCC	inactive: -0.0343
AACTGTCG	inactive: 0.081
AGCGACAC	inactive: 0.188
CCTTCTTC	inactive: -0.0726
AATCCTCC	inactive: -0.132
ACGGCTGA	≥ -0.0396
CAAGCGGA	inactive: -0.0208
CCTTGCTA	inactive: 0.0673
GAGCCCCC	inactive: -0.346
ATCTTAAA	inactive: -0.0278
ATACTTCA	inactive: 0.0715
CAATAAGA	inactive: 0.0892
ATCCCCGA	inactive: -0.0851

Sequence	PBM E-score
ACGGCTCT	inactive: -0.188
CAGCGACC	inactive: -0.177
AAGTCAAC	inactive: 0.0982
AATATCAC	inactive: 0.125
AGTTCTCG	inactive: 0.0205
ATTTGCTG	inactive: 0.0976
TCGCCAAA	inactive: -0.1
CCTCATTA	inactive: 0.0512
AATCCTTG	inactive: 0.081
GGAGGCGA	inactive: -0.22
AGCTGAGC	inactive: -0.235
CTGCGATC	inactive: -0.0123
AAAGGCAT	inactive: 0.0549
ACTTTCAT	inactive: 0.00867
AATAGGGC	inactive: -0.0654
ATTCTCAG	inactive: 0.0238
ATCAGAAA	inactive: 0.106
AACGCCCC	inactive: -0.182
TGTAACAA	active: 0.405
CAGGTGGA	inactive: -0.11
CGTCTGAC	inactive: -0.0706
ATCTTAAG	inactive: -0.0841
CTTAACTA	inactive: 0.114
CTAGTGAG	inactive: -0.135
CAACTGAC	inactive: 0.00851

Sequence	PBM E-score
ACGAAAAG	inactive: -0.0452
GAAAAAGC	inactive: -0.19
GCTCCACA	inactive: -0.0519
ATGCTATA	inactive: 0.11
AAGAAATA	inactive: 0.127
CTCCTTTA	inactive: -0.0502
GCAATAGA	inactive: -0.0405
AACACGTT	inactive: 0.292
GTACATAC	inactive: 0.307
AGCGCCGA	inactive: -0.181
AGAGCCTA	inactive: -0.0924
TCTGCAAA	inactive: 0.0257
ATCACAAC	inactive: 0.212
CTTTTCCC	inactive: -0.00826
ATTGCATC	inactive: 0.0898
ATGAGTAA	inactive: 0.0849
AGAAAGTG	inactive: 0.026
AAAGTAAA	inactive: 0.0632
AAGAAGAT	inactive: 0.0416
CGGTGAAA	inactive: -0.001
AACATGGC	active: 0.328
AATGGGAA	inactive: -0.00757
ATACAATG	inactive: 0.248
GGGGCACC	inactive: -0.26
